Results reported in US20240287457A1, “COMPOSITIONS AND CELL CULTURE MEDIA FOR INCREASING NEUTROPHIL LIFESPAN” (THE CHILDREN'S MEDICAL CENTER CORPORATION, priority 2021, published 2024).

Tests used:
murine neutrophils = experiment: In vitro neutrophil death / survival of cultured murine neutrophils; type: cell-based, mouse
human neutrophils = experiment: In vitro neutrophil death / survival of cultured human neutrophils

## CC(=O)N[C@@H](CC(=O)O)C(=O)N[C@@H](CCC(=O)O)C(=O)N[C@H](C(=O)N[C@H](C=O)CC(=O)O)C(C)C [Ac-DEVD-CHO, (4S,7S,10S,13S)-7-(2-carboxyethyl)-4-(carboxymethyl)-13-formyl-10-isopropyl-2,5,8,11-tetraoxo-3,6,9,12-tetraazapentadecan-15-oic acid]
Murine neutrophils; 100 nM
  Neutrophil survival after 3 days - normalized to fresh neutrophils (100): <10
Murine neutrophils; 1 μM
  Neutrophil survival after 3 days - normalized to fresh neutrophils (100): <10
Murine neutrophils; 10 μM
  Neutrophil survival after 3 days - normalized to fresh neutrophils (100): <10
Murine neutrophils; 100 μM
  Neutrophil survival after 3 days - normalized to fresh neutrophils (100): <10
Murine neutrophils; 200 μM
  Neutrophil survival after 3 days - normalized to fresh neutrophils (100): <10
Human neutrophils; 100 nM
  Neutrophil survival after 3 days - normalized to fresh neutrophils (100): <25
Human neutrophils; 1 μM
  Neutrophil survival after 3 days - normalized to fresh neutrophils (100): <25
Human neutrophils; 10 μM
  Neutrophil survival after 3 days - normalized to fresh neutrophils (100): <25
Human neutrophils; 25 μM
  Neutrophil survival after 3 days - normalized to fresh neutrophils (100): <25
Human neutrophils; 100 μM
  Neutrophil survival after 3 days - normalized to fresh neutrophils (100): <25
Human neutrophils; 200 μM
  Neutrophil survival after 3 days - normalized to fresh neutrophils (100): <25

## CCO[C@@H]1OC(=O)C[C@@H]1NC(=O)[C@@H]1CCCN1C(=O)[C@@H](NC(=O)c1ccc(N)c(Cl)c1)C(C)(C)C [Belnacasan (VX-765)]
Murine neutrophils; 12.5 μM
  Neutrophil survival after 3 days - normalized to fresh neutrophils (100): <10
Murine neutrophils; 25 μM
  Neutrophil survival after 3 days - normalized to fresh neutrophils (100): <10
Murine neutrophils; 50 μM
  Neutrophil survival after 3 days - normalized to fresh neutrophils (100): <10
Murine neutrophils; 100 μM
  Neutrophil survival after 3 days - normalized to fresh neutrophils (100): <10
Murine neutrophils; 200 μM
  Neutrophil survival after 3 days - normalized to fresh neutrophils (100): <10
Human neutrophils; 12.5 μM
  Neutrophil survival after 3 days - normalized to fresh neutrophils (100): <25
Human neutrophils; 25 μM
  Neutrophil survival after 3 days - normalized to fresh neutrophils (100): <25
Human neutrophils; 50 μM
  Neutrophil survival after 3 days - normalized to fresh neutrophils (100): <25
Human neutrophils; 100 μM
  Neutrophil survival after 3 days - normalized to fresh neutrophils (100): <25
Human neutrophils; 200 μM
  Neutrophil survival after 3 days - normalized to fresh neutrophils (100): <25

## COC(=O)CC(NC(=O)OC(C)(C)C)C(=O)CF [Boc-D-FMK]
Human neutrophils; 25 μM
  Neutrophil survival after 3 days - normalized to fresh neutrophils (100): <25

## CC(=O)N(O)CCCCCNC(=O)CCC(=O)N(O)CCCCCNC(=O)CCC(=O)N(O)CCCCCN.CS(=O)(=O)O [DFO, deferoxamine mesylate]
Murine neutrophils; 1 μM
  Neutrophil survival after 3 days - normalized to fresh neutrophils (100): <10
Murine neutrophils; 10 μM
  Neutrophil survival after 3 days - normalized to fresh neutrophils (100): <10
Murine neutrophils; 100 μM
  Neutrophil survival after 3 days - normalized to fresh neutrophils (100): <10
Murine neutrophils; 1 mM
  Neutrophil survival after 3 days - normalized to fresh neutrophils (100): <10
Murine neutrophils; 10 mM
  Neutrophil survival after 3 days - normalized to fresh neutrophils (100): <10
Human neutrophils; 1 μM
  Neutrophil survival after 3 days - normalized to fresh neutrophils (100): <25
Human neutrophils; 10 μM
  Neutrophil survival after 3 days - normalized to fresh neutrophils (100): <25
Human neutrophils; 100 μM
  Neutrophil survival after 3 days - normalized to fresh neutrophils (100): <25
Human neutrophils; 1 mM
  Neutrophil survival after 3 days - normalized to fresh neutrophils (100): <25
Human neutrophils; 10 mM
  Neutrophil survival after 3 days - normalized to fresh neutrophils (100): <25

## C[C@H](NC(=O)C(=O)Nc1ccccc1C(C)(C)C)C(=O)N[C@@H](CC(=O)O)C(=O)COc1c(F)c(F)cc(F)c1F [Emricasan, N-[2-(1,1-dimethylethyl)phenyl]-2-oxoglycyl-N-[(1S)-1-(carboxymethyl)-2-oxo-3-(2,3,5,6-tetrafluorophenoxy)propyl]-L-Alaninamide]
Murine neutrophils; 100 nM
  Neutrophil survival after 3 days - normalized to fresh neutrophils (100): <10
Murine neutrophils; 1 μM
  Neutrophil survival after 3 days - normalized to fresh neutrophils (100): <10
Murine neutrophils; 10 μM
  Neutrophil survival after 3 days - normalized to fresh neutrophils (100): <10
Murine neutrophils; 100 μM
  Neutrophil survival after 3 days - normalized to fresh neutrophils (100): <10
Murine neutrophils; 200 μM
  Neutrophil survival after 3 days - normalized to fresh neutrophils (100): <10
Human neutrophils; 100 nM
  Neutrophil survival after 3 days - normalized to fresh neutrophils (100): <25
Human neutrophils; 1 μM
  Neutrophil survival after 3 days - normalized to fresh neutrophils (100): <25
Human neutrophils; 10 μM
  Neutrophil survival after 3 days - normalized to fresh neutrophils (100): <25
Human neutrophils; 100 μM
  Neutrophil survival after 3 days - normalized to fresh neutrophils (100): <25
Human neutrophils; 200 μM
  Neutrophil survival after 3 days - normalized to fresh neutrophils (100): <25

## CC(=O)OCCN1C(=O)c2c(C)nc3ccc(S(=O)(=O)N4CCOCC4)cc3c2C1=O [Ivachtin]
Human neutrophils; 25 μM
  Neutrophil survival after 3 days - normalized to fresh neutrophils (100): <25

## CC(=O)N[C@@H](CS)C(=O)O [N-acetyl cysteine]
Murine neutrophils; 3.125 mM
  Neutrophil survival after 3 days - normalized to fresh neutrophils (100): <10
Murine neutrophils; 6.25 mM
  Neutrophil survival after 3 days - normalized to fresh neutrophils (100): <10
Murine neutrophils; 25 mM
  Neutrophil survival after 3 days - normalized to fresh neutrophils (100): <10
Murine neutrophils; 50 mM
  Neutrophil survival after 3 days - normalized to fresh neutrophils (100): <10
Human neutrophils; 3.125 mM
  Neutrophil survival after 3 days - normalized to fresh neutrophils (100): <25
Human neutrophils; 6.25 mM
  Neutrophil survival after 3 days - normalized to fresh neutrophils (100): <25
Human neutrophils; 25 mM
  Neutrophil survival after 3 days - normalized to fresh neutrophils (100): <25
Human neutrophils; 50 mM
  Neutrophil survival after 3 days - normalized to fresh neutrophils (100): <25

## CS(=O)(=O)N1CCC(Nc2cc(CN3CCS(=O)(=O)CC3)cc3cc(-c4ccccc4)[nH]c23)CC1 [NECROX-2]
Murine neutrophils; 10 nM
  Neutrophil survival after 3 days - normalized to fresh neutrophils (100): <10
Murine neutrophils; 100 nM
  Neutrophil survival after 3 days - normalized to fresh neutrophils (100): <10
Murine neutrophils; 1 μM
  Neutrophil survival after 3 days - normalized to fresh neutrophils (100): <10
Murine neutrophils; 10 μM
  Neutrophil survival after 3 days - normalized to fresh neutrophils (100): <10
Murine neutrophils; 100 μM
  Neutrophil survival after 3 days - normalized to fresh neutrophils (100): <10
Human neutrophils; 10 nM
  Neutrophil survival after 3 days - normalized to fresh neutrophils (100): <25
Human neutrophils; 100 nM
  Neutrophil survival after 3 days - normalized to fresh neutrophils (100): <25
Human neutrophils; 1 μM
  Neutrophil survival after 3 days - normalized to fresh neutrophils (100): <25
Human neutrophils; 10 μM
  Neutrophil survival after 3 days - normalized to fresh neutrophils (100): <25
Human neutrophils; 100 μM
  Neutrophil survival after 3 days - normalized to fresh neutrophils (100): <25

## CS(=O)(=O)O.CS(=O)(=O)O.O=S1(=O)CCN(Cc2cc(NCC3CCOCC3)c3[nH]c(-c4ccccc4)cc3c2)CC1 [NECROX-5]
Murine neutrophils; 10 nM
  Neutrophil survival after 3 days - normalized to fresh neutrophils (100): <10
Murine neutrophils; 100 nM
  Neutrophil survival after 3 days - normalized to fresh neutrophils (100): <10
Murine neutrophils; 1 μM
  Neutrophil survival after 3 days - normalized to fresh neutrophils (100): <10
Murine neutrophils; 10 μM
  Neutrophil survival after 3 days - normalized to fresh neutrophils (100): <10
Murine neutrophils; 100 μM
  Neutrophil survival after 3 days - normalized to fresh neutrophils (100): <10
Human neutrophils; 10 nM
  Neutrophil survival after 3 days - normalized to fresh neutrophils (100): <25
Human neutrophils; 100 nM
  Neutrophil survival after 3 days - normalized to fresh neutrophils (100): <25
Human neutrophils; 1 μM
  Neutrophil survival after 3 days - normalized to fresh neutrophils (100): <25
Human neutrophils; 10 μM
  Neutrophil survival after 3 days - normalized to fresh neutrophils (100): <25
Human neutrophils; 100 μM
  Neutrophil survival after 3 days - normalized to fresh neutrophils (100): <25

## CCN(CC)CCCC(C)Nc1nc(C)cc(Nc2ccc3nc(C)cc(N)c3c2)n1 (stereo not shown) [NSC23766]
Murine neutrophils; 100 nM
  Neutrophil survival after 3 days - normalized to fresh neutrophils (100): <10
Murine neutrophils; 1 μM
  Neutrophil survival after 3 days - normalized to fresh neutrophils (100): <10
Murine neutrophils; 10 μM
  Neutrophil survival after 3 days - normalized to fresh neutrophils (100): <10
Murine neutrophils; 100 μM
  Neutrophil survival after 3 days - normalized to fresh neutrophils (100): <10
Human neutrophils; 100 nM
  Neutrophil survival after 3 days - normalized to fresh neutrophils (100): <25
Human neutrophils; 1 μM
  Neutrophil survival after 3 days - normalized to fresh neutrophils (100): <25
Human neutrophils; 10 μM
  Neutrophil survival after 3 days - normalized to fresh neutrophils (100): <25
Human neutrophils; 100 μM
  Neutrophil survival after 3 days - normalized to fresh neutrophils (100): <25

## CN1C(=O)NC(Cc2c[nH]c3c(Cl)cccc23)C1=O (stereo not shown) [Nec-1s, Necrostatin-1s]
Murine neutrophils; 100 nM
  Neutrophil survival after 3 days - normalized to fresh neutrophils (100): <10
Murine neutrophils; 1 μM
  Neutrophil survival after 3 days - normalized to fresh neutrophils (100): <10
Murine neutrophils; 10 μM
  Neutrophil survival after 3 days - normalized to fresh neutrophils (100): <10
Murine neutrophils; 100 μM
  Neutrophil survival after 3 days - normalized to fresh neutrophils (100): <10
Murine neutrophils; 200 μM
  Neutrophil survival after 3 days - normalized to fresh neutrophils (100): <10
Human neutrophils; 100 nM
  Neutrophil survival after 3 days - normalized to fresh neutrophils (100): <25
Human neutrophils; 1 μM
  Neutrophil survival after 3 days - normalized to fresh neutrophils (100): <25
Human neutrophils; 10 μM
  Neutrophil survival after 3 days - normalized to fresh neutrophils (100): <25
Human neutrophils; 100 μM
  Neutrophil survival after 3 days - normalized to fresh neutrophils (100): <25
Human neutrophils; 200 μM
  Neutrophil survival after 3 days - normalized to fresh neutrophils (100): <25

## CC(C)C(NC(=O)c1ccc2ccccc2n1)C(=O)NC(CC(=O)O)C(=O)COc1c(F)cccc1F (stereo not drawn) [Q-VD-Oph, Quinoline-Val-Asp-Difluorophenoxymethylketone]
Murine neutrophils; 12.5 μM
  Neutrophil survival after 3 days - normalized to fresh neutrophils (100): 49 ± 4.4
Murine neutrophils; 25 μM
  Neutrophil survival after 3 days - normalized to fresh neutrophils (100): 51 ± 2.5
Murine neutrophils; 50 μM
  Neutrophil survival after 3 days - normalized to fresh neutrophils (100): 52 ± 0.2
Murine neutrophils; 100 μM
  Neutrophil survival after 3 days - normalized to fresh neutrophils (100): 46 ± 2.4
Murine neutrophils; 200 μM
  Neutrophil survival after 3 days - normalized to fresh neutrophils (100): 50 ± 3.6
Human neutrophils; 12.5 μM
  Neutrophil survival after 3 days - normalized to fresh neutrophils (100): 65 ± 9.6
Human neutrophils; 25 μM
  Neutrophil survival after 3 days - normalized to fresh neutrophils (100): 60 ± 0.8
Human neutrophils; 50 μM
  Neutrophil survival after 3 days - normalized to fresh neutrophils (100): 65 ± 3.9
Human neutrophils; 100 μM
  Neutrophil survival after 3 days - normalized to fresh neutrophils (100): 62 ± 4.9
Human neutrophils; 200 μM
  Neutrophil survival after 3 days - normalized to fresh neutrophils (100): 47 ± 8.3

## COc1cc(O)c2c(c1)oc(=O)c1c3cc(O)c(O)cc3oc21 [Wedelolactone]
Human neutrophils; 25 μM
  Neutrophil survival after 3 days - normalized to fresh neutrophils (100): <25

## COC(=O)C[C@H](NC(=O)[C@H](CCSC)NC(=O)[C@H](CCC(N)=O)NC(=O)[C@H](CC(=O)OC)NC(=O)OCc1ccccc1)C(=O)CF [Z-DQMD-FMK] (Cbz-D(OMe)QMD(OMe)-CH2F)
Human neutrophils; 25 μM
  Neutrophil survival after 3 days - normalized to fresh neutrophils (100): <25

## COC(=O)C[C@H](NC(=O)[C@H](C)NC(=O)[C@@H](NC(=O)[C@H](CC(=O)OC)NC(=O)[C@@H](NC(=O)OCc1ccccc1)C(C)C)C(C)C)C(=O)CF [Z-VDVAD-FMK] (Cbz-VD(OMe)VAD(OMe)-CH2F)
Human neutrophils; 25 μM
  Neutrophil survival after 3 days - normalized to fresh neutrophils (100): <25

## COC(=O)CC[C@H](NC(=O)[C@H](Cc1c[nH]c2ccccc12)NC(=O)OCc1ccccc1)C(=O)N[C@@H](Cc1cnc[nH]1)C(=O)N[C@@H](CC(=O)OC)C(=O)CF [Z-WEHD-FMK] (Cbz-WE(OMe)HD(OMe)-CH2F)
Human neutrophils; 25 μM
  Neutrophil survival after 3 days - normalized to fresh neutrophils (100): <25

Where a SMILES comes first, the peptide text is derived from it. The star is where a group is joined. Cbz = O=C(OCc1ccccc1)*; CH2F = FC*
